Laboratory results reported in PubChem BioAssay AID1768 (National Center for Advancing Translational Sciences (NCATS), 2009).
Several values for one entry are separate records, joined by “and”; a condition that tells them apart may be missing. Identical values can stand only once. Among all 270,000 compounds or so, about 620 (0.23%) were called active. The inconclusive results got no clear call from the source; some entries with a clear call stand among them for comparison. Calls follow the shape of the dose curve; as a rule, active = well fitted inhibition curve with a large enough effect in the polarisation, with a control signal flat (not every such curve was filed as active); inconclusive = small, poorly fitted or top-dose-only effect, or effect the other way, or a change in a side signal; inactive = no such curve, though single readings can be large or run the other way; the % refers to the polarisation. Potencies beside an inconclusive call are fits to weak or partial responses and may not hold up. “Side channel” marks fits to a control or component signal instead of the main read-out.

target: Menin (Homo sapiens) (UniProt O00255); experiment: qHTS Assay for Inhibitors Targeting the Menin-MLL Interaction in MLL Related Leukemias: Competition With Texas Red Labeled MLL-derived Mutant Peptide; details: fluorescence polarization; FP activity change, negative = inhibition: at 61.6 µM (top of the series); as to FP activity change, negative = inhibition: % of control where 0% means no effect
Chain of UniProt O00255 (O00255 whole entry, looked up): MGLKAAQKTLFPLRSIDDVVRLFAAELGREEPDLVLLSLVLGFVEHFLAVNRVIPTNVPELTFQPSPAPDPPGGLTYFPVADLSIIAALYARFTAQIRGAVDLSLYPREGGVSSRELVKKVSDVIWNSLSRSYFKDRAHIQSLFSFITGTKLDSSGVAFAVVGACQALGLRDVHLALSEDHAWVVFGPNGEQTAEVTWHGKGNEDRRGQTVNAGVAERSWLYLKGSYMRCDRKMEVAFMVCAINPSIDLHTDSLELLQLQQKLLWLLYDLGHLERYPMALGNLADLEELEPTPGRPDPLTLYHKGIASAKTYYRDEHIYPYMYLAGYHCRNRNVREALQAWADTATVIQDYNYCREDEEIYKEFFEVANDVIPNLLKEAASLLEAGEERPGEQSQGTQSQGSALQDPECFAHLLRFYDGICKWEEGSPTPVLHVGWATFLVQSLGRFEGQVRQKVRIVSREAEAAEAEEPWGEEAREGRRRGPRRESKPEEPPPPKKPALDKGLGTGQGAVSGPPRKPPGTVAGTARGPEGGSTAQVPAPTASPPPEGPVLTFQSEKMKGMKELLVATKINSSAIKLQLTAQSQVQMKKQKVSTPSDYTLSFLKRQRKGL
Potency is read from the fitted curve at half-maximal effect; tags tell the direction and shape of the fitted curve or compound fluorescence and quenching.

Potency, inconclusive:
CCN(CC)C(=O)C1CCN(Cc2cccc(OCc3ccccc3)c2)CC1 39.8 µM [inhibitor, partial curve]
CCOC(=O)c1nnn(-c2nonc2N)c1COc1cc(C)c(Cl)c(C)c1 3.16 µM [fluorescent, side channel, partial curve]
CCN(CC)S(=O)(=O)c1ccc2c(c1)c(=O)c(C(=O)NCCc1ccc(OC)c(OC)c1)cn2C 39.8 µM [inhibitor, single point]
CCOCCCN(C(=O)CNC(=O)c1ccco1)C(C(=O)NC1CCCC1)c1cccc(OC)c1 (centres undefined) 17.8 µM [inhibitor, partial curve]
Brc1ccc(-c2nnc(SCCC3OCCCO3)o2)cc1 28.2 µM [fluorescent, side channel, single point]
O=[N+]([O-])c1ccccc1CNC1CCCCCC1 11.2 µM [inhibitor, partial curve, poor fit]
COc1ccc(OC)c(Cc2nnc(CCC(=O)N3CCC(N4CCCCC4)CC3)o2)c1 1.26 µM [fluorescent, side channel, full curve, poor fit]
Cc1nc2sccn2c(=O)c1CCN1CCC(=C(c2ccc(F)cc2)c2ccc(F)cc2)CC1 15.8 µM [fluorescent, side channel, partial curve] and 44.7 µM [fluorescent, side channel, partial curve]
O=C(CS(=O)CC(=O)N(CC(=O)NC1CCCC1)c1ccc2c(c1)OCCO2)Nc1ccc(F)cc1 (centres undefined) 3.98 µM [fluorescent, side channel, full curve, poor fit]
N#CCCn1cc(C(=O)Nc2ccccc2Br)c(-c2cc3ccccc3o2)n1 2 µM [quencher, side channel, full curve, poor fit]
COc1cc(NC(=O)c2ccccc2)c(OC)cc1NC(=O)Cc1cccs1 17.8 µM [quencher, side channel, partial curve]
O=[N+]([O-])c1ccc(N2CCN(S(=O)(=O)c3ccccc3)CC2)cc1NCC1CCCO1 (centres undefined) 39.8 µM [inhibitor, single point]
O=C(c1cc(-c2ccc(Cl)cc2)n(-c2cc(Cl)ccc2Cl)n1)N1CCOCC1 5.62 µM [fluorescent, side channel, partial curve]
O=[N+]([O-])c1cccc(-c2nc(N3CCOCC3)c3ccccc3n2)c1 12.6 µM [quencher, side channel, partial curve]
Cc1ccc(C(=O)N(C)CC(=O)Nc2cccc(C)c2C)o1 8.91 µM [quencher, side channel, single point]
Cc1ccc(OCCSc2nc3ccccc3n2CC(=O)O)c(C(C)C)c1 39.8 µM [quencher, side channel, partial curve]
COc1ccc(Cl)cc1NC(=O)COc1cccc(-n2cnnn2)c1 39.8 µM [inhibitor, single point]
Cc1cc(C)n(Cc2ccc(C(=O)NCCC3=CCCCC3)o2)n1 39.8 µM [inhibitor, single point]
Clc1ccc(CSc2nnc(-c3c[nH]c4ccccc34)o2)cc1 25.1 µM [quencher, side channel, single point]
C=CCNC(=O)c1ccc2nccnc2c1 22.4 µM [inhibitor, single point]
Nc1nnc(SCC(=O)Nc2ccc3nc(SCC(=O)Nc4ccccc4)sc3c2)s1 3.98 µM [quencher, side channel, partial curve]
CC(=O)Oc1ccc(N(C(C)=O)S(=O)(=O)c2ccc3ccccc3c2)cc1Br 39.8 µM [quencher, side channel, single point]
CC(C)CC(=O)NC(=S)Nc1nc(-c2ccccc2)cs1 10 µM [quencher, side channel, partial curve]
COc1ccccc1NC(=O)C12CC3CC(C1)CC(c1ccc(C)cc1)(C3)C2 3.98 µM [fluorescent, side channel, full curve, poor fit]
CCOC(=O)c1nc(Nc2cc(Cl)ccc2OC)c2ccccc2n1 3.55 µM [fluorescent, side channel, full curve, poor fit]
Cc1ccc2nc(N3CCN(c4ccccc4F)CC3)c(C=O)c(=O)n2c1 17.8 µM [fluorescent, side channel, partial curve]
CCCCOc1ccccc1NC(=O)CC1Nc2ccccc2NC1=O (centres undefined) 17.8 µM [quencher, side channel, partial curve]
COc1cc(NC(=O)Cn2ncc(Cl)c(Cl)c2=O)c(C)cc1[N+](=O)[O-] 11.2 µM [quencher, side channel, partial curve]
O=C(OC1CCCCC1)c1ccc2c(c1)C1C=CCC1C(C(=O)O)N2 (centres undefined) 20 µM [quencher, side channel, partial curve]
CCCCC(=O)N1CC(=O)Nc2ccc(F)cc2C1c1ccccc1 (centres undefined) 35.5 µM [inhibitor, partial curve]
Cc1[nH]n(-c2ccccc2)c(=O)c1N=Nc1nccs1 22.4 µM [quencher, side channel, partial curve]
Cc1ccc(C(=O)CC(=O)c2cc(Cl)ccc2O)cc1 35.5 µM [quencher, side channel, single point]
Oc1ccc(O)c(/C(=N/Nc2ccccc2)c2ccccc2)c1 14.1 µM [quencher, side channel, partial curve]
Cc1ccc(/C(N)=N/OC(=O)c2cccc(F)c2)cc1 39.8 µM [inhibitor, single point]
CCOC(=O)c1sc(NC(=O)c2ccc(S(=O)(=O)N3CCCCCC3)cc2)nc1-c1ccccc1 31.6 µM [quencher, side channel, single point]
Cn1c(=O)oc2cc(S(=O)(=O)N3CCC(C(=O)NCc4ccc(F)cc4)CC3)ccc21 31.6 µM [fluorescent, side channel, single point]
Cc1ccc(OCCNC(=O)/C=C/c2ccc([N+](=O)[O-])cc2)cc1C 35.5 µM [quencher, side channel, single point]
COc1ccc(NC(=O)CCC(=O)Nc2cc(OC)c(NC(=O)c3cccs3)cc2OC)cc1 3.98 µM [quencher, side channel, single point]
COC(=O)c1cc(NC(=S)N2CCN(c3ccccn3)CC2)cc(C(=O)OC)c1 39.8 µM [fluorescent, single point]
O=C1CC(N2CCC(Cc3ccccc3)CC2)C(=O)N1CCc1ccccc1 (centres undefined) 22.4 µM [fluorescent, side channel, partial curve]
Fc1ccc(N2CCN(c3cnc4ccccc4n3)CC2)cc1 20 µM [inhibitor, partial curve]
COc1cccc(-c2csc(NC(=O)Nc3ccccc3)n2)c1 2.82 µM [quencher, side channel, full curve]
COc1ccc(C[C@@H]2CN3C(=NC[C@@H]3C)N2C[C@H](C)NC(=O)c2ccc(C)c(Br)c2)cc1 3.16 µM [fluorescent, side channel, full curve]
COC(=O)c1ccc(NS(=O)(=O)c2cc(-c3cc(C)no3)ccc2OC)cc1 20 µM [quencher, side channel, single point]

Potency, inactive:
O=C(Nc1nc2ccc([N+](=O)[O-])cc2s1)c1ccco1
Cc1c(CCC(=O)O)c(=O)oc2c(C)c3occ(-c4ccc(Br)cc4)c3cc12
CC1=C/C(=N\NC(=S)Nc2cccnc2)CC(C)(C)C1
COc1cc2c(cc1OC)C(c1ccc(N(C)C)cc1)CC(=O)N2 (centres undefined)
O=C(Nc1ccccc1N1CCN(C(=O)c2ccc(Cl)cc2)CC1)c1ccc2c(c1)OCO2
Cc1cnc(CNc2ncnc3ccc(-c4c(C)noc4C)cc23)cn1
O=C(NCc1ccc2c(c1)OCO2)c1nc(S(=O)(=O)Cc2ccccc2F)ncc1Cl
O=C1c2ccccc2OC2(C=Cc3ccccc3O2)N1Cc1ccccc1 (centres undefined)
COc1nc(-c2ccc(C)cc2)ccc1-c1noc(-c2cccnc2)n1
CC(C)(C)NC(=S)NNC(=O)c1cccc(Br)c1
O=C(Nc1nnc(S(=O)(=O)N2CCCC2)s1)c1ccccc1Br
CN1[C@@H]2CC(OC(=O)[C@H](CO)c3ccccc3)C[C@@H]1[C@H]1O[C@H]12 (some centres undefined)
COc1cccc(/C=C/C(=O)OCC(=O)Nc2cccc(S(=O)(=O)N3CCCCC3)c2)c1OC
Cc1ccc2[nH]c3c(=O)n(CCCN4CCOCC4)cnc3c2c1

FP activity change, negative = inhibition, inactive:
COC(=O)C/C=C\[C@@H](C)[C@@H](/C=N\OC[C@@H](O)[C@H]1O[C@H]2OC(C)(C)O[C@H]2[C@@H]1O)OC 0.632% [at 11.7 µM]
